Laboratory results published in the supplement of paper PMC11741623.
The list shows a part of the results. Interaction screen of human proteins with wild-type SARS-CoV-2 proteins by split-DHFR complementation in yeast, 1 µg/mL methotrexate. Value = fitness of the pair (three or more lineages) minus that of the viral protein without a human partner, on a scale set by negative (0) and fused positive (1) controls, mean of up to three cultures; higher = more likely to interact. Active = false discovery rate below 0.05 (one-sided t-test) in at least one culture. Nearly all pairs are not hits, and differences among them are mostly noise (correlation between cultures about 0.3); most hits were seen in one culture only. Human sequences are the Swiss-Prot entries looked up by gene name; the clone may be another isoform. NSP2 values were corrected by the authors for a growth advantage. Listed are human proteins with a hit and a random twelfth of the others.

Assays:
Assay in all cases: yeast fitness gain over the viral ORF with no human partner (scaled fitness); higher = more likely to interact
[1] = molecular target: SARS-CoV-2 E
Method: (§1)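 Split mouse DHFR complementation in pooled diploid yeast: human ORFeome clones carry one fragment and viral ORFs the other; barcoded lineages compete in 1 µg/mL methotrexate and fitness is read by barcode sequencing in up to three cultures.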

[2] = molecular target: SARS-CoV-2 M
Method: as §1

[3] = molecular target: SARS-CoV-2 N
Method: as §1

[4] = molecular target: SARS-CoV-2 NSP1
Method: as §1

[5] = molecular target: SARS-CoV-2 NSP10
Method: as §1

[6] = molecular target: SARS-CoV-2 NSP12
Method: as §1

[7] = molecular target: SARS-CoV-2 NSP13
Method: as §1

[8] = molecular target: SARS-CoV-2 NSP15
Method: as §1

[9] = molecular target: SARS-CoV-2 NSP16
Method: as §1

[10] = molecular target: SARS-CoV-2 NSP2
Method: as §1

[11] = molecular target: SARS-CoV-2 NSP4
Method: as §1

[12] = molecular target: SARS-CoV-2 NSP5
Method: as §1

[13] = molecular target: SARS-CoV-2 NSP6
Method: as §1

[14] = molecular target: SARS-CoV-2 NSP7
Method: as §1

[15] = molecular target: SARS-CoV-2 NSP8
Method: as §1

[16] = molecular target: SARS-CoV-2 NSP9
Method: as §1

[17] = molecular target: SARS-CoV-2 ORF10
Method: as §1

[18] = molecular target: SARS-CoV-2 ORF3A
Method: as §1

[19] = molecular target: SARS-CoV-2 ORF3B
Method: as §1

[20] = molecular target: SARS-CoV-2 ORF6
Method: as §1

[21] = molecular target: SARS-CoV-2 ORF7A
Method: as §1

[22] = molecular target: SARS-CoV-2 ORF7B
Method: as §1

[23] = molecular target: SARS-CoV-2 ORF8
Method: as §1

[24] = molecular target: SARS-CoV-2 ORF9B
Method: as §1

[25] = molecular target: SARS-CoV-2 ORF9Bwu (the 73-codon ORF)
Method: as §1

[26] = molecular target: SARS-CoV-2 S
Method: as §1

[27] = molecular target: SARS-CoV-2 NSP14
Method: as §1

Measured: yeast fitness gain

B1: NDUFAF1, Q9Y375 (protein)
chain: MALVHKLLRGTYFLRKFSKPTSALYPFLGIRFAEYSSSLQKPVASPGKASSQRKTEGDLQGDHQKEVALDITSSEEKPDVSFDKAIRDEAIYHFRLLKDEIVDHWRGPEGHPLHEVLLEQAKVVWQFRGKEDLDKWTVTSDKTIGGRSEVFLKMGKNNQSALLYGTLSSEAPQDGESTRSGYCAMISRIPRGAFERKMSYDWSQFNTLYLRVRGDGRPWMVNIKEDTDFFQRTNQMYSYFMFTRGGPYWQEVKIPFSKFFFSNRGRIRDVQHELPLDKISSIGFTLADKVDGPFFLEIDFIGVFTDPAHTEEFAYENSPELNPRLFK
inactive: [1] 0.045 | [2] 0.0255 | [3] -0.00247 | [4] -0.0959 | [5] 0.00455 | [6] -0.0769 | [7] 0.0373 | [8] -0.0319 | [9] 0.0459 | [10] -0.0772 | [11] -0.0465 | [12] 0.0199 | [13] -0.187 | [14] -0.0071 | [15] -0.00767 | [16] -0.155 | [17] -0.0268 | [18] 0.174 | [19] -0.0113 | [20] 0.0323 | [21] -0.0733 | [22] 0.0384 | [23] 0.0451 | [24] -0.0467 | [25] 0.0671 | [26] -0.0426

B2: NUDT16, Q96DE0 (protein)
chain: MAGARRLELGEALALGSGWRHACHALLYAPDPGMLFGRIPLRYAILMQMRFDGRLGFPGGFVDTQDRSLEDGLNRELREELGEAAAAFRVERTDYRSSHVGSGPRVVAHFYAKRLTLEELLAVEAGATRAKDHGLEVLGLVRVPLYTLRDGVGGLPTFLENSFIGSAREQLLEALQDLGLLQSGSISGLKIPAHH
inactive: [1] 0.0632 | [2] -0.0132 | [3] 0.0532 | [4] -0.0337 | [5] 0.0487 | [6] -0.00445 | [7] 0.0427 | [27] 0.0517 | [8] 0.00398 | [9] 0.0277 | [10] -0.143 | [11] 0.0634 | [12] 0.0486 | [13] -0.0222 | [14] 0.0144 | [15] -0.0277 | [16] -0.156 | [17] 0.043 | [18] 0.0209 | [19] 0.0255 | [20] 0.0152 | [21] -0.00909 | [22] 0.033 | [23] 0.000496 | [24] 0.00653 | [25] 0.0381 | [26] 0.0168

B3: NUDT16L1, Q9BRJ7 (protein)
chain: MSTAAVPELKQISRVEAMRLGPGWSHSCHAMLYAANPGQLFGRIPMRFSVLMQMRFDGLLGFPGGFVDRRFWSLEDGLNRVLGLGLGCLRLTEADYLSSHLTEGPHRVVAHLYARQLTLEQLHAVEISAVHSRDHGLEVLGLVRVPLYTQKDRVGGFPNFLSNAFVSTAKCQLLFALKVLNMMPEEKLVEALAAATEKQKKALEKLLPASS
inactive: [1] 0.0355 | [2] 0.0572 | [4] -0.0964 | [5] -0.112 | [6] -0.071 | [7] -0.0309 | [8] -0.0681 | [9] -0.056 | [10] -0.0845 | [12] -0.0397 | [13] -0.16 | [14] -0.102 | [15] -0.0821 | [16] 0.123 | [17] 0.0276 | [19] -0.0269 | [20] 0.0152 | [21] -0.224 | [22] -0.172 | [23] -0.0955 | [24] 0.0408 | [25] 0.103 | [26] -0.0606

B4: OR10W1, Q8NGF6 (protein)
chain: MEFVFLAYPSCPELHILSFLGVSLVYGLIITGNILIVVSIHTETCLCTSMYYFLGSLSGIEICYTAVVVPHILANTLQSEKTITLLGCATQMAFFIALGSADCFLLAAMAYDRYVAICHPLQYPLLMTLTLCVHLVVASVISGLFLSLQLVAFIFSLPFCQAQGIEHFFCDVPPVMHVVCAQSHIHEQSVLVAAILAIAVPFFLITTSYTFIVAALLKIHSAAGRHRAFSTCSSHLTVVLLQYGCCAFMYLCPSSSYNPKQDRFISLVYTLGTPLLNPLIYALRNSEMKGAVGRVLTRNCLSQNS
inactive: [1] 0.137 | [2] -0.0103 | [3] -0.109 | [4] 0.0539 | [5] -0.00808 | [6] 0.0326 | [7] 0.00624 | [27] -0.0766 | [8] 0.0349 | [9] -0.0146 | [10] -0.133 | [11] 0.0734 | [12] 0.0486 | [13] 0.132 | [14] 0.0765 | [15] -0.0298 | [16] 0.0681 | [17] -0.00358 | [18] -0.118 | [19] 0.0426 | [20] 0.00746 | [21] -0.0247 | [22] 0.0997 | [23] 0.0468 | [24] -0.00239 | [25] -0.012 | [26] -0.0391
